The full ranking holds about 33,000 sequences; the median of “E-score (-0.5 to 0.5)” is about -0.012, and the highest 2% start at about 0.29. The list shows a part of the results.
The sequences below were run against T1, Ybr033w (UniProt P38073) (assay: PBM E-score (8-mer binding enrichment) (E-score (-0.5 to 0.5)); higher = stronger / more preferred TF binding; most listed sequences are background and not binding sites). Conditions: protein concentration: 200 nM; construct: GST-full length.
T1 sequence: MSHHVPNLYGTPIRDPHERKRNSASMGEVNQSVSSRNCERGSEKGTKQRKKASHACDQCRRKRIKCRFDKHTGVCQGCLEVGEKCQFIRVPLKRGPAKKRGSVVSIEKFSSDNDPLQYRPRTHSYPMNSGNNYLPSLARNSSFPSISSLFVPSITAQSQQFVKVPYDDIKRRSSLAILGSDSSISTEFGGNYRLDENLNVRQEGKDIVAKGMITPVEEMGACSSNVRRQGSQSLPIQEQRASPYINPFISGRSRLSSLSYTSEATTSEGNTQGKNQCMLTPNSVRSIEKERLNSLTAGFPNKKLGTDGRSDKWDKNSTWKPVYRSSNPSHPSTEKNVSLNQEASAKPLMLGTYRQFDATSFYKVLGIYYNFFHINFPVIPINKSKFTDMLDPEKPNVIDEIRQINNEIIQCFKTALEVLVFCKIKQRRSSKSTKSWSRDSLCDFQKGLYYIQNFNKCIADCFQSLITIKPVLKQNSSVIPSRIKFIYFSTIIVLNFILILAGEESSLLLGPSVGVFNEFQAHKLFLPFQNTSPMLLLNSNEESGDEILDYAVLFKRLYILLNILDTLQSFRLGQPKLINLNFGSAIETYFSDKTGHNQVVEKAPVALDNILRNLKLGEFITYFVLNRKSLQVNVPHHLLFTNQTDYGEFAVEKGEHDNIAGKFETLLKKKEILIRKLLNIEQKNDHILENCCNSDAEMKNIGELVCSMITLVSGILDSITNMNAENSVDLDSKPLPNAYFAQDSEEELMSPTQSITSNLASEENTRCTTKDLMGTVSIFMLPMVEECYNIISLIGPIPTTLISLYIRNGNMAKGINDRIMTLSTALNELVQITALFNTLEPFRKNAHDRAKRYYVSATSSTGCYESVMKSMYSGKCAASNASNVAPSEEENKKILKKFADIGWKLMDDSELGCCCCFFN
How it was run: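 Using PURExpress in vitro transcription/translation, GST-tagged yeast transcription factors were made in full-length or DNA-binding-domain form. These were applied at about 100-200 nM to double-stranded universal all-10-mer Agilent arrays, and bound protein was detected with fluorescent anti-GST. Scans were normalised with masliner before the Universal PBM Analysis Suite assigned E-scores to ungapped eight-base words pooled with their reverse complements.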

| Sequence | PBM E-score |
| --- | --- |
| CCTGGAGC | -0.214 |
| CTAAAGTC | -0.103 |
| TATAACCA | 0.0875 |
| ACATTTGA | 0.108 |
| TAAGCGAA | 0.0634 |
| AATCTTGC | 0.206 |
| ACGGCCGG | -0.181 |
| CCAACCTC | 0.0835 |
| GGCTCAAA | -0.124 |
| ACTCGCCC | -0.209 |
| CTTGGCGA | -0.329 |
| AAGAGCTA | 0.0269 |
| CAAGGATG | -0.124 |
| AGACCAAC | -0.0961 |
| GCGATCAC | -0.207 |
| AAAAATAT | 0.349 |
| ATTGATTG | 0.25 |
| ATAAATTG | 0.365 |
| GCTTTAAC | 0.0802 |
| ACGCTATG | 0.0168 |
| CTAGGATA | 0.0752 |
| CGTGAACG | -0.302 |
| CCATTCCC | -0.078 |
| CGTTCACC | 0.0323 |
| AAAACGTA | 0.175 |

| Sequence | PBM E-score |
| --- | --- |
| GACTTTGC | -0.144 |
| AAAACATA | 0.197 |
| AGTATCTC | 0.0683 |
| AATACGTG | 0.0765 |
| GACGGATC | 0.119 |
| GCCAGCTA | -0.153 |
| GGCCGGAC | -0.316 |
| CGGGTGAA | -0.038 |
| CCCGCGCG | -0.0304 |
| GAGAGAAA | 0.0771 |
| TAACCGTA | -0.0571 |
| GCTATTCA | 0.209 |
| GGACCCAA | -0.141 |
| ATCCAGGG | -0.0176 |
| CGTCGCCA | -0.138 |
| CTGCCTAC | 0.0172 |
| AGTCCGGG | 0.0519 |
| GTCCTGAA | -0.0199 |
| ATGCGGCG | -0.0285 |
| AATCCAGA | 0.295 |
| CAGAAGAA | 0.037 |
| AACATTCT | 0.17 |
| CTGGACAC | -0.277 |
| AAACTGTT | 0.239 |
| AACTCGTG | 0.203 |

| Sequence | PBM E-score |
| --- | --- |
| AGCAACTG | -0.116 |
| ACTAAAAT | 0.272 |
| TCGGACGA | 0.0295 |
| CTATTCCA | 0.17 |
| AATCGCCC | -0.276 |
| AGGATCAT | 0.261 |
| GCGGGGTA | -0.228 |
| AGCCCGGG | -0.267 |
| GCAATCAA | 0.093 |
| ATTACCCC | -0.0788 |
| CCGCGACA | 0.0211 |
| CTAAATAA | 0.202 |
| TACAATGA | 0.0675 |
| GGTGAGGA | 0.0514 |
| AAGCACGT | -0.0664 |
| CGGTCATA | -0.0603 |
| GCTACTAC | 0.251 |
| ATTTGGAC | 0.0161 |
| TAGCAAGA | -0.0183 |
| CAATTACA | 0.118 |
| ACCACCGC | -0.197 |
| CCGGACAG | -0.188 |
| CATAGAGA | 0.0779 |
| CCCGGAAG | 0.114 |
| CCCGCCTC | -0.17 |

| Sequence | PBM E-score |
| --- | --- |
| AGACGCTA | -0.125 |
| AATGGCAA | 0.0593 |
| ATAGCGGC | -0.106 |
| ATATTAGC | 0.215 |
| GGTAGGAC | -0.277 |
| AGGTCACG | -0.203 |
| AATGACAC | 0.0865 |
| CCTAGCAC | -0.118 |
| TAAGATTA | 0.11 |
| CTCGACGC | -0.0138 |
| CCATCTAC | 0.00382 |
| CCAGATGG | -0.0622 |
| CGGAAATC | 0.067 |
| ACTATAGC | -0.192 |
| ACGTTCAC | 0.00149 |
| CTGTACAC | -0.0974 |
| CACCGCTG | -0.249 |
| AGAACTAC | 0.0374 |
| GAAGCCAA | -0.0905 |
| ATTAATGC | 0.22 |
| CGCAAAGA | -0.00133 |
| CACAAGAG | -0.088 |
| GCTGCTCA | -0.11 |
| ATGGATCG | 0.0268 |
| ACCCGCTC | -0.361 |

| Sequence | PBM E-score |
| --- | --- |
| GAATGCAC | 0.0511 |
| ATAGGGAA | 0.0951 |
| GGCACTCA | -0.237 |
| CAGCATGC | -0.129 |
| ATGGCTCG | -0.152 |
| ATCCTTCC | -0.18 |
| TGCGCGCA | -0.123 |
| CTCACTCA | 0.0508 |
| CGACAAGA | 0.00352 |
| ACATTCGC | -0.0539 |
| AAGAGTAG | -0.0106 |
| AAGCGCGT | -0.0855 |
| TGAGGAAA | 0.0614 |
| CGTGAAGC | -0.295 |
| ACCAACGT | 0.0804 |
| AAGTGGGT | -0.0704 |
| ATGAAAAA | 0.165 |
| AAGGACGC | -0.105 |
| ACCGGTCT | -0.4 |
| AGTTTCAG | 0.0896 |
| ACGGCTAC | 0.0148 |
| CAGTTAAG | 0.0532 |
| CCGGACCC | -0.243 |
| GGCCCCTA | -0.447 |
| CTTTAGCC | -0.0126 |

| Sequence | PBM E-score |
| --- | --- |
| CTGTGAAC | 0.027 |
| CGTTCGTC | -0.134 |
| CATCGTGA | -0.2 |
| ATAGTGGA | 0.0933 |
| GAGATGCC | -0.104 |
| ATCAATAC | 0.181 |
| GACAACGA | -0.083 |
| TAGGTCGA | -0.00582 |
| CCCTTATC | -0.0405 |
| AGAGCTCC | -0.29 |
| ACAAACGG | 0.108 |
| ATACAACA | 0.152 |
| GTAGGCTA | -0.102 |
| ATCGGCAG | -0.0561 |
| ACTCACTA | 0.2 |
| ATACAGAC | 0.147 |
| ATAGAGAC | 0.097 |
| GTAGATCA | 0.22 |
| GAGATAAC | -0.0832 |
| CGAGTAGC | -0.0807 |
| GTAAGTAA | 0.07 |
| TGAAGTAA | 0.0554 |
| AAAAGATC | 0.253 |
| AGCGCCAC | -0.314 |
| ATCAGGAG | -0.0502 |

| Sequence | PBM E-score |
| --- | --- |
| GAGCTCCC | -0.228 |
| ACTTAACC | 0.122 |
| CGGCGACC | -0.324 |
| CTTATTCC | 0.207 |
| AGCTTCAC | -0.161 |
| TACCTGGA | 0.025 |
| AAGGGGAC | -0.17 |
| ACATGCGC | -0.0429 |
| AATAAATT | 0.314 |
| TGCTATAA | 0.0493 |
| ACGCGCTC | -0.0257 |
| CACCATGG | -0.191 |
| GTAATCTA | 0.207 |
| ATCTACAA | 0.125 |
| ATCAGGTA | 0.0728 |
| AGCCTAAA | 0.118 |
| CCCTGTCG | -0.23 |
| AAGTGGAC | -0.0328 |
| ATAGTGAG | -0.0204 |
| CACATGCA | -0.133 |
| CCTCGATA | 0.0185 |
| GCTTCCTA | 0.0109 |
| AACAAACG | 0.183 |
| AGTCTGGA | 0.0222 |
| GCGGTCCC | -0.239 |

| Sequence | PBM E-score |
| --- | --- |
| TCTCTACA | 0.105 |
| ATGAAAGC | 0.163 |
| AGGCACGA | -0.0668 |
| TTAGGGAA | 0.0746 |
| CAGAGAAC | 0.0865 |
| CGGATTAC | -0.014 |
| CACGCCTA | -0.136 |
| CCTAGAGC | -0.179 |
| CGTTGGAG | -0.109 |
| GTTTCACA | 0.157 |
| GGCTTTCA | -0.0296 |
| GACTGCCA | -0.0509 |
| GCCGCCCA | -0.284 |
| ACGTGCCC | -0.118 |
| AATGAAGG | 0.146 |
| AGTCAAAG | -0.051 |
| ACGCACAA | -0.0376 |
| ACAGTTTA | 0.126 |
| GGGGATAC | -0.269 |
| GAGCACCC | -0.296 |
| CAAGTCAC | -0.097 |
| CAGATTTC | 0.181 |
| GCGCACAC | -0.141 |
| CGCAACGC | -0.125 |
| ATTGACTC | 0.0792 |

| Sequence | PBM E-score |
| --- | --- |
| ATGTTCGA | 0.0468 |
| GTCAGGGA | -0.133 |
| TACGGATA | 0.23 |
| AGCATAAC | 0.0859 |
| GCTCGGTA | 0.104 |
| CGACTGGC | -0.0974 |
| ATACAAGC | 0.209 |
| CAGGGTGG | -0.234 |
| CTGTTGAC | -0.114 |
| ACATGTGA | -0.0699 |
| ACTTTATA | 0.154 |
| ACGTCCTC | -0.115 |
| AGATACGC | 0.00893 |
| CAAAATAA | 0.206 |
| ATTCTACC | 0.159 |
| GATGACCA | -0.0393 |
| ATCTGAGA | 0.0954 |
| CACATATC | 0.168 |
| AGGAATGG | -0.0847 |
